“And” between values parts separate entries of the source, which are not always exact repeats. Identical values can stand only once. Hit rate of the full screen: of about 340,000 compounds, about 6,900 (2%) were called active. No stated cut-off is given here; in the data, active means inhibition above about 30%; inactive means below that, where a call was filed. Only a part is listed here, and it is no random draw. The source gives no active or inactive call for entries shown without one.

Usually inhibition stands for the relative decrease from the control value, in per cent.

Chain of UniProt P14416 (P14416 whole entry, looked up): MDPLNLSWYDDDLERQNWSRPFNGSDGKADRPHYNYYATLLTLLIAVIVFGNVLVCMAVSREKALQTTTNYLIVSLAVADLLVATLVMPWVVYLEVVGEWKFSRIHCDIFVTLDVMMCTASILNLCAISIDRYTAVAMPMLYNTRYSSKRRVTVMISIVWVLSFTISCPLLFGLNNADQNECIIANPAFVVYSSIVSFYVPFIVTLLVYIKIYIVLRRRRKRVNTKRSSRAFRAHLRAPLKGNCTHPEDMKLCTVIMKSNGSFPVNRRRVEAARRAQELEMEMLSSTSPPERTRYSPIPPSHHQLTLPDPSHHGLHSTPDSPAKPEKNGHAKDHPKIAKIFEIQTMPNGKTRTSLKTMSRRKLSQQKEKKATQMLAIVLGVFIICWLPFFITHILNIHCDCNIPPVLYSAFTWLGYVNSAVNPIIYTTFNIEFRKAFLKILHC

The test concerns the target D(2) dopamine receptor (Homo sapiens) (UniProt P14416). The test is described as follows: HTS Assay for Allosteric Antagonists of the Human D2 Dopamine Receptor: Primary Screen for Antagonists. Further: 0% is about no effect. The conditions noted are these: HEK293 TREx D2 cells, calcium flux, dopamine EC80; at 10 µM; stronger effect = higher value. Summed up:
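Calcium mobilization kinetics were recorded at 1 s intervals in tetracycline-induced HEK293 T-REx D2 cells, first for 180 s after compound addition and then 180 s after EC80 dopamine.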
A general note: Calcium assays in cells follow changes in intracellular calcium, usually with a dye or a luminescent sensor.
In the case of `COc1ccc(CNC(=O)C2=C(C)C(=O)OC23CCCCC3)cc1OC`, the inhibition is 8.17%.

Take `O=C(c1ccc(F)cc1F)N1CCC(c2nc(-c3ccc(S(=O)(=O)N4CCCC4)cc3)no2)CC1`: the inhibition was 5.12%.

On to `Cc1cc(C)cc(NC(=O)CSc2nc3c([nH]c4ccccc43)c(=O)n2-c2ccc(F)cc2)c1`, for which the inhibition is -4.95%.

On to `CCOc1ccc(-c2cc(NC(=O)c3cccc(Cl)c3)c(C(=O)OC)s2)cc1`, for which the inhibition came out at 11.3%.

As to `O=C(Nc1ccc(C(=O)N2CCCCC2)cc1)c1nsc2ccccc12`, the inhibition is -2.58%.

In the case of `COc1cc(Cl)c(C)cc1NC(=O)CCc1c(C)nc2c3cccnc3nn2c1C`, the inhibition is -1.67%.

With `CS(=O)(=O)c1ccccc1-c1nnc(NC(=O)c2ccc3c(c2)OCCO3)o1`, the inhibition was -6.29%.

`COc1ccc(CNC(=O)CSc2n[nH]c(-c3ccc(F)cc3)n2)cc1`: the inhibition is -21.8%.

As for `O=C(Nc1nc2n(n1)C(c1ccccc1)C=C(c1ccccc1)N2)c1ccccc1` (configuration not stated), the inhibition is -19.7%.

With `COc1ccc(NC(=O)c2nnn(CC(=O)Nc3c(C)cc(C)cc3C)c2N)cc1OC`, the inhibition is 3.52%.

`Cc1ccc(C)c(CN2C(=O)c3ccccc3S(=O)(=O)c3ccc(C(=O)Nc4cc(F)ccc4F)cc32)c1`: the inhibition was -1.13%.

As to `COc1ccc(CNC(=O)C(CCSC)NS(=O)(=O)c2ccc3c(c2)oc(=O)n3C)cc1` (configuration not stated), the inhibition was 6.82%.

As to `COc1ccc(CNC(=O)CN(c2ccc(C)cc2)S(=O)(=O)c2c(C)noc2C)cc1`, the inhibition is 18.3%.

Take `Cc1ccc(OCCCCn2cnc3ccccc32)cc1`: the inhibition stood at 3.85%.

Consider `CCc1cccc(C)c1NC(=O)c1ccc(CN2CCc3ccccc3C2)cc1`, for which the inhibition was active: 55.1%.

For `CCCN(CCC)CCNC(=O)CN1C(=O)COc2ccc(S(=O)(=O)N3CCOCC3)cc21`, the inhibition was -9.47%.

Consider `CCC(CC)C(=O)Nc1nnc(S(=O)(=O)N2CCc3ccccc32)s1`, for which the inhibition was 12.3%.

In the case of `O=C(NCc1ccccc1Cl)C1CCN(C(=O)N2CCOc3ccccc32)CC1`, the inhibition is -7.59%.

As for `Cc1cccc(OCC(=O)NCCc2nc3ccccc3[nH]2)c1C`, the inhibition amounted to 11.4%.

Take `[O-][N+]1=c2ccc(Nc3ccccc3)cc2=NC12CCCCC2`: the inhibition was active: 32.5%.

As to `CCOc1ccc(-n2nc(CO)c(C(=O)NCc3ccccn3)n2)cc1`, the inhibition is -2.39%.

`CCCOc1ccc(C(=O)NC2CCSc3ccccc32)cc1` (configuration not stated): the inhibition was active: 36%.

`Cc1cccnc1NC(=O)c1ccc(Cl)c(S(=O)(=O)N2CCCCCC2)c1`: the inhibition was active: 56.1%.

In the case of `COc1ccc(Cn2c(C)nc3oc4cc(OC)ccc4c(=O)c3c2=O)cc1`, the inhibition is active: 71.7%.

`COC(=O)c1ccccc1NC(=O)c1cnn(-c2ccc(F)cc2)c1-n1cccc1`: the inhibition was -4.38%.

Regarding `Cc1ccc(CN(C(=O)COc2ccccc2[N+](=O)[O-])c2ccccn2)cc1`, the inhibition was -3.03%.

In the case of `COc1ccc(C(=O)NCCSCc2cccc(Cl)c2)cc1OC`, the inhibition was active: 32%.

Take `CCOc1ccc(NC(=O)C2CCCN(c3cnccn3)C2)cc1` (configuration not stated): the inhibition is -12.4%.

In the case of `CCOc1ccc(Cl)cc1CNCCCSc1nnnn1C`, the inhibition is -2.82%.

Take `COC(=O)CSc1nc2sc3c(c2c(=O)n1-c1ccc(C)cc1)CC(C(C)C)OC3` (configuration not stated): the inhibition amounted to 6.71%.

For the molecule `CCN(CC)S(=O)(=O)c1ccc2c(c1)N(CC(=O)Nc1ccc(OC)cc1)C(=O)CS2`, the inhibition worked out at 7.16%.

In the case of `Cc1ccccc1CNC(=O)c1oc2c(c1C)-c1nn(Cc3ccc(Cl)cc3)cc1CC2`, the inhibition stood at 4.13%.

For `Cc1ccc(C(=O)NCC(=O)OCc2cc(=O)n3ccsc3n2)cc1`, the inhibition was -15.6%.

Turning to `COc1cc(F)ccc1CN1CCC(C(=O)Nc2ccc(Oc3ccccc3)nc2)CC1`, the inhibition is active: 39.6%.

For the molecule `CCc1ccc(NC(=O)CSc2ccc3nc(-c4ccc(OC)cc4)cn3n2)cc1`, the inhibition was determined as 0.248%.

For `CC(C)Cn1c(C2CC(=O)N(c3ccccc3Cl)C2)nc2ccccc21` (configuration not stated), the inhibition came to 0.315%.

Take `O=C(Cn1nc(-c2ccccc2)nc(Cc2ccccc2)c1=O)Nc1ccc(Cl)cc1`: the inhibition is -17.7%.

For `Cc1oc(-c2ccc(C(=O)NCCN(C)C)cc2)nc1CS(=O)(=O)c1ccccc1`, the inhibition was 8.72%.

Regarding `Cc1cccc(NC(=O)Cn2nnc(C(=O)NCc3ccco3)c2N)c1`, the inhibition is 12.5% and active: 34.4%.

As for `COc1ccc(Br)cc1C(=O)Nc1ccc(-c2nc3ncccc3o2)cc1C`, the inhibition is -3.2%.

Take `Cc1cccc(-n2c(N)cc(=O)nc2SCC(=O)Nc2ccc(F)cc2)c1C`: the inhibition was -4.83%.

Take `COc1ccc(Br)cc1/C(C)=N/NC1=NCCN1`: the inhibition was active: 32.6%.

Take `O=C(Nc1ccc(Cl)cc1Cl)c1cc(S(=O)(=O)N2CCCCCC2)ccc1F`: the inhibition was -1.65%.

`Cc1cc(C)cc(C(=O)n2nc(C)c(S(=O)(=O)N3CCCCCC3)c2C)c1`: the inhibition is -25.2%.

Regarding `CCCCS(=O)(=O)c1oc(-c2cccs2)nc1S(=O)(=O)c1ccc(F)cc1`, the inhibition is -1.67%.

On to `Cc1c(C(=O)N2CCN(c3ccc(F)cc3)CC2)sc2nc3n(c(=O)c12)CCC3`, for which the inhibition was -8.81%.

Consider `O=C1CC(c2cc(F)cc(F)c2)c2cc3c(cc2N1)OCO3` (configuration not stated), for which the inhibition was -3.32%.

For the molecule `O=C(Cn1ccn(-c2ccc(F)cc2)c(=O)c1=O)Nc1ccccc1C(F)(F)F`, the inhibition came out at 7.36%.

For the molecule `Cc1ccc(CNCCCSc2nc(C)cc(C)n2)cc1`, the inhibition is active: 63.4%.

With `CCCOc1ccc(NC(=O)CC2C(=O)N(c3ccc(C)cc3)C(=O)N2CCc2ccncc2)cc1` (configuration not stated), the inhibition was 6.7%.

Take `O=c1c(NCc2ccccc2Cl)nccn1-c1ccccc1`: the inhibition was found to be 4.15%.

Turning to `Cc1c(NC(=O)c2cc(-c3ccccc3O)on2)c(=O)n(-c2ccccc2)n1C`, the inhibition stood at 14.7%.

For the molecule `CC(=O)N1CCc2cc(S(=O)(=O)NC(CC(C)C)C(=O)NCc3ccccc3Cl)ccc21` (configuration not stated), the inhibition is 0.268%.

In the case of `COC(=O)c1sccc1NC(=O)Cc1ccc(Br)cc1`, the inhibition is active: 42.4%.

With `COc1ccc(CNC(=O)CCc2c(C)c3cc4c(C)c(C)oc4cc3oc2=O)cc1`, the inhibition is -6.8%.

Take `CCC(=O)N1CCc2cc(Br)cc(S(=O)(=O)N3CCC(C(=O)Nc4ccccc4F)CC3)c21`: the inhibition was found to be 9.62%.

In the case of `CCCCCOc1ccc(Cn2c(=O)oc3ccc(C)cc32)cc1OC`, the inhibition was found to be 3.2%.

Take `CCOc1ccc(NC(=O)CCNS(=O)(=O)c2ccc3c(c2)CCCC(=O)N3)cc1`: the inhibition came to 10.5%.

For the molecule `CC(=O)Nc1c(C)nn(-c2ccccc2)c1N1CCC(C(=O)NCc2cccc(Cl)c2)CC1`, the inhibition was 0.848%.

In the case of `COc1cc(Cl)c(NC(=O)CCc2nc3cccnc3n2-c2ccccc2)c(OC)c1`, the inhibition is -13.8%.

Consider `O=C(CSc1nc2cc3ccccc3cc2[nH]1)Nc1ccc(F)cc1`, for which the inhibition is -2.23%.

Take `CC1=C(C(=O)Nc2ccc(Cl)cc2)C(c2cccs2)n2nc(SCc3cccc(C)c3)nc2N1` (configuration not stated): the inhibition was -7.78%.

In the case of `COCCNC(=S)N(CCc1c(C)[nH]c2ccc(F)cc12)Cc1cccs1`, the inhibition was active: 30%.

In the case of `Cc1ccc(NC(=O)c2cnc(SCC(=O)N3CCCc4ccccc43)n(C)c2=O)cc1`, the inhibition is 0.714%.

For `CC(C)(C)OC(=O)N1CCC(c2c(C(=O)N3CCN(c4ccccc4F)CC3)cnn2-c2ccccc2Cl)CC1`, the inhibition worked out at 1.42%.

Turning to `COc1ccc(OC)c(NC(=O)c2cnc(Nc3ccc(C)c(Cl)c3)c3ccccc23)c1`, the inhibition was -0.939%.

On to `CC1CCC(N2CC(=O)N(CCC3=CCCCC3)C(c3ccc(F)cc3)C2=O)CC1` (configuration not stated), for which the inhibition stood at 24.6%.

For `O=S1(=O)NC(=NCc2ccccc2)c2ccccc21`, the inhibition was active: 30.5%.

`CCN(CC)C(=O)Cn1c(=O)n(-c2ccc(C)c(C)c2)c(=O)c2c(C)c(C(=O)N(CC)CC)sc21`: the inhibition stood at 5.51%.

For the molecule `CCN1CCN(C(=O)c2cnn(-c3ccc(F)cc3F)c2C2CCN(C(=O)OC(C)(C)C)CC2)CC1`, the inhibition was -16.5%.

`CC1CCc2onc(C(=O)N3CCN(c4ccc(F)cc4)CC3)c2C1` (configuration not stated): the inhibition stood at 6.49%.

With `CCCCCN1C(C(=O)c2ccccc2)=C(NC(=O)c2ccc(C)cc2)c2ccccc2S1(=O)=O`, the inhibition was -7.78%.

With `Cc1cc(=O)n(Cc2ccc(F)cc2Cl)c2c1c(C)nn2C`, the inhibition is -3.69%.

`CC(C)c1ccc(-c2noc(SCC(=O)N3CCCCC3C)n2)cc1` (configuration not stated): the inhibition was -1.32%.

For `Cc1cc(C)cc(OC(=O)c2cc(-c3ccc(Cl)cc3)on2)c1`, the inhibition is -3.85%.

`Cc1cccc(-c2nc(CCNC(=O)c3ccc(Br)o3)cs2)c1`: the inhibition stood at 6.67%.

Consider `Cn1c(SCC(=O)Nc2ccc(Cl)cc2F)nnc1-c1ccco1`, for which the inhibition was active: 40.4%.

`O=S(=O)(Nc1ccc(-c2ccc(N3CCCC3)nn2)cc1)c1ccc(C(F)(F)F)cc1`: the inhibition amounted to 10.9%.

Take `Cc1ccc(-n2ncc3c(N(C)C)ncnc32)cc1Cl`: the inhibition came to 18.4%.

`CCC(Sc1nc(-c2ccccc2)[nH]c1S(=O)(=O)c1ccc(C)cc1)C(=O)O` (configuration not stated): the inhibition came to 10.6%.

Turning to `COc1ccc(C)cc1NC(=O)Nc1cc(C(=O)NCc2ccc(C)cc2)ccc1N1CCCC1`, the inhibition amounted to 9.58%.

Regarding `Cc1sc(-c2cc3ccccc3oc2=O)nc1-c1ccc(Cl)c(Cl)c1`, the inhibition is -19%.

For the molecule `Cc1nnc(N2CCCC(C(=O)NCCN(C)C)C2)c2nn(-c3ccccc3)c(C)c12` (configuration not stated), the inhibition is -1.48%.

For `CCOc1ccc(CNCc2c(C(=O)O)c(C)n(Cc3ccc(C)cc3)c2C)cc1`, the inhibition was -0.934%.

Regarding `CCOc1ccccc1OCCCCn1c(-c2ccc(Cl)cc2)nc2ccccc2c1=O`, the inhibition turned out to be 3.77%.

For the molecule `Cc1cc(C)cc(NC(=O)c2ccc3oc(=O)c(S(=O)(=O)c4ccc(F)cc4)cc3c2)c1`, the inhibition was -4.55%.

With `CCN1CCN(CCCNC(=O)CS(=O)(=O)Cc2nc(-c3ccccc3C)oc2C)CC1`, the inhibition is 7.49%.

Take `COc1ccc(N2CCN(C(=O)C3CCN(S(=O)(=O)c4cccc5nonc45)CC3)CC2)cc1`: the inhibition is -19.3%.

For the molecule `Cc1ccc(-c2nnc(Nc3ccc(C(N)=O)cc3)c3ccccc23)cc1S(N)(=O)=O`, the inhibition came out at 4.46%.

For `O=C(Nc1ccc(-c2nc3ccccc3o2)c(O)c1)c1ccccc1`, the inhibition is -24.2%.

On to `COc1ccc(NC(=O)Cn2c(=O)c3cccn3c3ccccc32)cc1Cl`, for which the inhibition was -20.7%.

For the molecule `CCOC(=O)c1noc2ncnc(Nc3cc(Cl)c(OC)cc3OC)c12`, the inhibition was 3.52%.

As for `Cc1ccc(C2=CC(c3ccc(Cl)cc3)n3nc(-c4ccc(C)cc4)nc3N2)cc1` (configuration not stated), the inhibition was -5.8%.

On to `CC(C)c1ccc(C2c3c(oc4ccc(Cl)cc4c3=O)C(=O)N2CCCN2CCOCC2)cc1` (configuration not stated), for which the inhibition was -18.4%.

For `COc1cc(NC(=O)CN2C(=O)C(c3ccc(Cl)cc3)=NC23CCCCC3)cc(OC)c1`, the inhibition is -8.85%.

As for `Cc1ccc(O)c(NC(=O)c2cc(-c3ccc(F)cc3)on2)c1`, the inhibition was determined as 13.5%.

Take `Cc1ccccc1OCC(O)CN1CCN(c2ccccn2)CC1` (configuration not stated): the inhibition is active: 87.2%.

Source of the values: PubChem BioAssay AID485344 (National Center for Advancing Translational Sciences (NCATS), 2010).
